From the antibiotic and cytotoxicity screens of Wong et al. (2023)
The other results are listed elsewhere or left out.

Assays:
HSkMC = human skeletal muscle cells; assay: cytotoxicity call (relative viability < 0.9); conditions: 10 µM
HepG2 = assay: cytotoxicity call (relative viability < 0.9); conditions: 10 µM
S. aureus RN4220 = assay: growth inhibition call (relative growth <= 0.2); conditions: 50 µM

CON(C)c1nc(Oc2ccc(=O)[nH]n2)nc(N(C)C)n1
inactive: cytotoxicity call (HSkMC) | cytotoxicity call (HepG2) | growth inhibition call (S. aureus RN4220)

C[C@H]1CCCCO[C@H](CN(C)C(=O)Nc2ccccc2)[C@@H](C)CN([C@@H](C)CO)C(=O)c2cc(NC(=O)C3CCCCC3)ccc2O1
inactive: cytotoxicity call (HSkMC) | cytotoxicity call (HepG2) | growth inhibition call (S. aureus RN4220)

C[C@H](O)C#Cc1ccc2c(c1)O[C@H](CN(C)C(=O)Nc1ccccc1)[C@@H](C)CN([C@@H](C)CO)S2(=O)=O
inactive: cytotoxicity call (HSkMC) | cytotoxicity call (HepG2) | growth inhibition call (S. aureus RN4220)

CC(C)NC(=O)N(C)C[C@@H]1Oc2ccc(NS(=O)(=O)c3cn(C)cn3)cc2CC(=O)N([C@@H](C)CO)C[C@H]1C
inactive: cytotoxicity call (HSkMC) | cytotoxicity call (HepG2) | growth inhibition call (S. aureus RN4220)

COc1ccc(NC(=O)N(C)C[C@@H]2OCCCC[C@@H](C)Oc3ccc(NS(=O)(=O)c4ccc(F)cc4)cc3C(=O)N([C@H](C)CO)C[C@@H]2C)cc1
inactive: cytotoxicity call (HSkMC) | cytotoxicity call (HepG2) | growth inhibition call (S. aureus RN4220)

C[C@@H]1CCCCO[C@H](CN(C)S(=O)(=O)c2ccc(F)cc2)[C@@H](C)CN([C@@H](C)CO)C(=O)c2cc(NC(=O)C3CCCCC3)ccc2O1
inactive: cytotoxicity call (HSkMC) | cytotoxicity call (HepG2) | growth inhibition call (S. aureus RN4220)

Cc1noc(C)c1S(=O)(=O)Nc1ccc2c(c1)CC(=O)N([C@H](C)CO)C[C@@H](C)[C@H](CN(C)C(=O)NC(C)C)O2
inactive: cytotoxicity call (HSkMC) | cytotoxicity call (HepG2) | growth inhibition call (S. aureus RN4220)

C[C@H](CO)N1C[C@H](C)[C@H](CN(C)S(=O)(=O)c2cn(C)cn2)Oc2ncc(C3=CCCC3)cc2C1=O
inactive: cytotoxicity call (HSkMC) | cytotoxicity call (HepG2) | growth inhibition call (S. aureus RN4220)

C[C@@H]1CN([C@@H](C)CO)C(=O)c2cc(NC(=O)Nc3ccc(C(F)(F)F)cc3)ccc2O[C@@H](C)CCCCO[C@H]1CN(C)S(=O)(=O)c1ccccc1
inactive: cytotoxicity call (HSkMC) | cytotoxicity call (HepG2) | growth inhibition call (S. aureus RN4220)

CNC[C@@H]1OCCCC[C@H](C)Oc2ccc(NC(=O)c3ccncc3)cc2C(=O)N([C@H](C)CO)C[C@@H]1C
inactive: cytotoxicity call (HSkMC) | cytotoxicity call (HepG2) | growth inhibition call (S. aureus RN4220)

C[C@@H]1CN([C@@H](C)CO)C(=O)CCCn2nncc2CO[C@H]1CN(C)C(=O)C1CC1
inactive: cytotoxicity call (HSkMC) | cytotoxicity call (HepG2) | growth inhibition call (S. aureus RN4220)

C[C@@H]1CN([C@H](C)CO)S(=O)(=O)c2ccc(-c3cccc(C(=O)N(C)C)c3)cc2O[C@H]1CN(C)C(=O)Cc1ccccn1
inactive: cytotoxicity call (HSkMC) | cytotoxicity call (HepG2) | growth inhibition call (S. aureus RN4220)

Cc1noc(C)c1NC(=O)Nc1ccc2c(c1)C(=O)N([C@@H](C)CO)C[C@@H](C)[C@H](CN(C)C(=O)Nc1ccc3c(c1)OCO3)OCCCC[C@H](C)O2
inactive: cytotoxicity call (HSkMC) | cytotoxicity call (HepG2) | growth inhibition call (S. aureus RN4220)

C[C@H](CO)N1C[C@H](C)[C@H](CN(C)Cc2ccc(C(F)(F)F)cc2)Oc2ccc(NC(=O)Cn3cnnn3)cc2CC1=O
inactive: cytotoxicity call (HSkMC) | cytotoxicity call (HepG2) | growth inhibition call (S. aureus RN4220)

Cc1noc(C)c1S(=O)(=O)Nc1cccc2c1O[C@@H](CN(C)C(=O)Nc1ccc3c(c1)OCO3)[C@@H](C)CN([C@H](C)CO)C2=O
inactive: cytotoxicity call (HSkMC) | cytotoxicity call (HepG2) | growth inhibition call (S. aureus RN4220)

CCCNc1nc(=O)c(C)n[nH]1
inactive: cytotoxicity call (HSkMC) | cytotoxicity call (HepG2) | growth inhibition call (S. aureus RN4220)

C[C@@H]1CN([C@@H](C)CO)C(=O)c2cccc(NC(=O)NC3CCCCC3)c2O[C@@H]1CN(C)S(=O)(=O)c1cn(C)cn1
inactive: cytotoxicity call (HSkMC) | cytotoxicity call (HepG2) | growth inhibition call (S. aureus RN4220)

COc1ccccc1CNC(=O)C[C@@H]1C[C@H]2c3cc(NS(=O)(=O)c4ccc(F)cc4)ccc3O[C@H]2[C@H](CO)O1
inactive: cytotoxicity call (HSkMC) | cytotoxicity call (HepG2) | growth inhibition call (S. aureus RN4220)

Cc1ccc(S(=O)(=O)NCC[C@@H]2CC[C@H](NS(=O)(=O)c3ccccc3Cl)[C@H](CO)O2)cc1
inactive: cytotoxicity call (HSkMC) | cytotoxicity call (HepG2) | growth inhibition call (S. aureus RN4220)

C[C@H](CO)N1C[C@H](C)[C@H](CN(C)S(=O)(=O)c2ccccc2)Oc2ccc(NC(=O)CCN3CCOCC3)cc2C1=O
inactive: cytotoxicity call (HSkMC) | cytotoxicity call (HepG2) | growth inhibition call (S. aureus RN4220)

C[C@@H]1CN([C@@H](C)CO)C(=O)c2cc(NC(=O)Cc3ccccc3)ccc2O[C@@H](C)CCCCO[C@@H]1CN(C)S(=O)(=O)c1ccc(Cl)cc1
inactive: cytotoxicity call (HSkMC) | cytotoxicity call (HepG2) | growth inhibition call (S. aureus RN4220)

COc1cccc(S(=O)(=O)N(C)C[C@H]2Oc3cc(C4=CCCC4)ccc3S(=O)(=O)N([C@H](C)CO)C[C@@H]2C)c1
inactive: cytotoxicity call (HSkMC) | cytotoxicity call (HepG2) | growth inhibition call (S. aureus RN4220)

C[C@H]1CN([C@@H](C)CO)C(=O)Cc2cc(NC(=O)C3CC3)ccc2O[C@@H]1CN(C)C(=O)NC1CCCCC1
inactive: cytotoxicity call (HSkMC) | cytotoxicity call (HepG2) | growth inhibition call (S. aureus RN4220)

C[C@@H]1CN([C@@H](C)CO)C(=O)c2cccc(NC(=O)NC3CCCCC3)c2O[C@@H]1CN(C)Cc1ccc(Cl)c(Cl)c1
inactive: cytotoxicity call (HSkMC) | cytotoxicity call (HepG2) | growth inhibition call (S. aureus RN4220)
